The campaign covered roughly 310,000 compounds. About 2,200 (0.71%) showed an effect of 50% or more. Effects have a minus sign here. Some of the results follow.
Target: human ether-à-go-go-related gene (hERG) potassium channel (human, UniProt Q12809)
Assay: primary screen, population patch clamp on CHO cells stably expressing hERG

Chain of human ether-à-go-go-related gene (hERG) potassium channel (Q12809 whole entry, looked up): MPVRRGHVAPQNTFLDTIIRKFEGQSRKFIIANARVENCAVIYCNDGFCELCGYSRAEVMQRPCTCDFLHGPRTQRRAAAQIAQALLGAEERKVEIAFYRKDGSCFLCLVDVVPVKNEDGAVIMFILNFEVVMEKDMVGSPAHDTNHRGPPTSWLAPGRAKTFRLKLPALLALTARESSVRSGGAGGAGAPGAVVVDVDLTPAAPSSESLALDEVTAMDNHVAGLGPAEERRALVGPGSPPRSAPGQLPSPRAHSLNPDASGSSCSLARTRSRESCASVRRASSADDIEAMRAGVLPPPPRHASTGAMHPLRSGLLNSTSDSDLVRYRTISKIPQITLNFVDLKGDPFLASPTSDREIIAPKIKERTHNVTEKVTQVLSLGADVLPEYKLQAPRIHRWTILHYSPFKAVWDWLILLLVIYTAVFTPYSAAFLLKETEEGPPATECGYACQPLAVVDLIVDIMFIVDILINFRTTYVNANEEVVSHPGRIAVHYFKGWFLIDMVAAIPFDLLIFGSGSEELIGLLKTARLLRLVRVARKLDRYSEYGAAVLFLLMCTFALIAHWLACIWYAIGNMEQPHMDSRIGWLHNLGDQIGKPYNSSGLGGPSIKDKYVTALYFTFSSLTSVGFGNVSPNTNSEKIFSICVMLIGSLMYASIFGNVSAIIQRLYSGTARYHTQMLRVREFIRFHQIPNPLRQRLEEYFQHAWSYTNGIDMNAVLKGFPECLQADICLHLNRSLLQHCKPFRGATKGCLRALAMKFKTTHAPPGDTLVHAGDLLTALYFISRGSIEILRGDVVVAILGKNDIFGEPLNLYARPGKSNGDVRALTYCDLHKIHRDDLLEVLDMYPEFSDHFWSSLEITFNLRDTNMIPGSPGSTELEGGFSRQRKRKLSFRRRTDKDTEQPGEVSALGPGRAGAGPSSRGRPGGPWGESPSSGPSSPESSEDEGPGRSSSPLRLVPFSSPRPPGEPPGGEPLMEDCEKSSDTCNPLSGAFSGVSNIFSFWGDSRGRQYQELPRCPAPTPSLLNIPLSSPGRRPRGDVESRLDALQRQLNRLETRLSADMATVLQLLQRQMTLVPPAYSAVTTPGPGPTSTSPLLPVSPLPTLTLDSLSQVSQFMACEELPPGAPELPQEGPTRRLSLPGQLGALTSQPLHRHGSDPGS

Structure (SMILES) | hERG current change (%, negative = inhibition) at 1uM [%]
O=c1c2ccccc2nc2c3ccccc3c(NCCN3CCOCC3)nn12 | -46
COc1ccccc1C(=O)N1CCC(C(=O)c2ccc(F)cc2)CC1 | 3.81
O=C(Nc1cccc(C(F)(F)F)c1)c1cccnn1 | 3.2
Cc1ccc(NC(=O)c2ccc(NCCCN3CCC(C)CC3)c([N+](=O)[O-])c2)cc1F.Cl | 2.4
CC(=O)c1ccc(-n2c(CCC(=O)O)ccc2-c2ccc(Cl)cc2)cc1 | 1.38
Cc1cc(C)cc(NC(=S)N(CCN(C)C)C(C)c2cccnc2)c1 (stereo not drawn) | 2.76
C=CCn1c(N)c(C(=O)Nc2cccc(C)c2)c2nc3ccccc3nc21 | 22.4
CC(C)CCNC(=O)CCS(=O)(=O)c1cccc2nonc12 | 15.9
Br.COc1ncnc2c1N=C1CC(C)(C)CC(N)=C1S2 | 9.87
Cc1ccc(S(=O)(=O)NC(CC(=O)NC2CCCC2)c2ccco2)cc1 (stereo not drawn) | 4.44
COc1ccc(NC2=CC(c3cccc(OC)c3)N(c3ccc(OC)cc3)C2=O)cc1 (stereo not drawn) | 11.5
Cc1ccc(NS(=O)(=O)c2ccccc2Cl)c2c1CC(C)(C)O2 | 6.77
C/C(=N\NC(=O)c1ccc2c(c1)OCO2)c1ccc(O)cc1 | 14.3
CSCCC(NS(=O)(=O)c1ccc(Cl)cc1)C(=O)OCC(=O)NC1CC1 (stereo not drawn) | 3.86
CCOc1ccccc1CN1CCC(O)CC1 | 12.7
O=C(CC1SC(=NCc2ccccc2)NC1=O)Nc1ccccc1 (stereo not drawn) | 8.03
Cc1csc(NC(=O)CNC(=O)OCc2ccccc2)n1 | 0.305
O=[N+]([O-])c1ccc2c(c1)C(c1ccccc1)=NCCN2 | -24.9
COc1ccccc1S(=O)(=O)Nc1ccc(S(=O)(=O)Nc2nccs2)cc1 | 8.3

Structure (SMILES) | hERG current change (%, negative = inhibition) at 1uM [%]
Cc1ccc2c(c1)-c1ncc(C(=O)c3cc(Br)ccc3O)cc1CO2 | 12.6
CC(C)(C)/C=N/NC(=O)CNC(=O)c1ccc2c(c1)OCCO2 | 15.4
CCCCc1cc2ccccc2c(OCCN(C)C)n1.Cl | 1.3
Cc1oc2cc3oc(=O)c(CCC(=O)NCCC(=O)O)c(C)c3cc2c1C | 17.7
Cc1c(C(=O)Nc2cccc(F)c2)cnn1-c1ccccc1 | 8.93
CCc1ccc(C(C)NC(=O)C2CCCC2)cc1 (stereo not drawn) | 16.6
O=S1(=O)C=C(Sc2nc3ccccc3s2)c2ccccc21 | 9.04
Cc1ccc(-c2nnn(CC(=O)N(Cc3cccs3)C(C(=O)NC(C)(C)C)c3ccc(C)o3)n2)o1 (stereo not drawn) | -12.2
S=C(NCCc1ccccc1)NC1CC1 | 19.2
CCOc1ccc(N2C(=O)C3ON(c4ccccc4)C(c4ccco4)C3C2=O)cc1 (stereo not drawn) | 4.79
CC(C)(C)S(=O)(=O)c1cnc2c(S(=O)(=O)c3ccccc3)cnn2c1N | 9.5
CNc1oc(-c2ccco2)nc1C#N | -11.5
COc1ccc2oc(C(=O)OCc3c(C)noc3C)c(C)c2c1 | 9.99
CC(=O)O/C(=C\c1cn(C(C)=O)c2ccccc12)C(=O)O | 15.2
Cc1ccc2c(c1)nnn2C1CCN(CC(=O)N2CCN(c3ccc(F)cc3)CC2)CC1 | -52.5
CCOC(=O)n1ccc(C(=O)Nc2ccccc2F)n1 | 5.92
CCOC(=O)NC(NC(=S)Nc1ccccc1OC)C(Cl)(Cl)Cl (stereo not drawn) | 16
COc1ccc(CN(Cc2ccccn2)C(=O)CN2C(=O)C(C)Oc3ccccc32)cc1 (stereo not drawn) | 4.34
COc1ccc(OCc2nnc(SCC(=O)Nc3cccc(C(C)=O)c3)o2)cc1 | 5.32

Structure (SMILES) | hERG current change (%, negative = inhibition) at 1uM [%]
c1ccc(-c2nc3c(ccc4ccccc43)[nH]2)nc1 | 8.12
COc1ccc(Cn2c(=S)[nH]c3cc(C(=O)N4CCCCC4)ccc3c2=O)cc1 | 10.3
CC(OC(=O)C1CCN(S(=O)(=O)c2ccc(F)cc2)CC1)C(=O)NC1CCCCC1C (stereo not drawn) | 12.3
CC(C(=O)Nc1ccc(S(N)(=O)=O)cc1)N1CCc2ccccc21 (stereo not drawn) | 6.92
CCOC(=O)N1CCN(C(=O)C2CCCN(Cc3nc(-c4ccc(Cl)cc4)oc3C)C2)CC1 (stereo not drawn) | -57.7
COC(=O)CC1C(=O)NC2CCCCC2N1C(=O)CCl (stereo not drawn) | 11.5
Cc1cccc(NC(=O)CN2C(=O)N/C(=C/c3ccc(C)s3)C2=O)c1 | 10.2
CCN1CCN(CCOc2cccc(Oc3ccccc3)c2)CC1.O=C(O)C(=O)O | -6.32
O=C(NN1CCOCC1)C12CC3CC(CC(C3)C1)C2 | 9.37
COc1ccccc1C(=O)Oc1cc(N)n(S(=O)(=O)c2ccc(C)cc2)n1 | 10.2
O=C(c1cccc(S(=O)(=O)N2CCCCC2)c1)N1CCN(c2ccccc2)CC1 | 0.3
O=C(Nc1ccccc1C(=O)NC(Cc1ccccc1)C(=O)NC1CCCCC1)c1ccccc1 (stereo not drawn) | 8.22
Cc1ccc(C(=O)CSc2nc(-c3ccccc3)ccc2C#N)cc1 | 5.19
CCOC(=O)C1CCCN(S(=O)(=O)c2c(C)noc2C)C1 (stereo not drawn) | 3.45
N#CC1=C(S)N=C(N)C(c2nc(-c3ccccc3)cs2)C12CCCC2 (stereo not drawn) | 8.21
Cc1ccc(NC(=O)C2(c3ccccc3)CC2(Cl)Cl)cc1C (stereo not drawn) | 14.3
COc1ccc(NS(=O)(=O)c2cccc(C(=O)NNC(=O)CNC(=O)c3ccccc3)c2)cc1 | 9.98
Cc1ccc(-n2nc3c(=O)n(CCCC(=O)NCC(C)c4ccccc4)nc(C)c3c2C)cc1 (stereo not drawn) | 2.55
COc1ccccc1CC1(C)NC(=O)N(CC(=O)N2CC(C)OC(C)C2)C1=O (stereo not drawn) | 10.3

Source: article PMC4336329 (PLoS ONE, 2015)
